Data reported in PubChem BioAssay (NCI).
Several values for one entry are separate records, joined by “and”; a condition that tells them apart may be missing. Equal entries are not always repeated.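 96-well plates; 48 h exposure; 5 concentrations. Endpoints by linear interpolation between flanking doses. Not reached: highest tested concentration assigned. At the GI50, growth is halved. Definition used: TGI = concentration required for complete inhibition of growth.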

System: NCI-H322M lung
Assay: NCI anticancer screen, dose series, 48 h

SMILES	TGI	GI50 [nM]
O=C1CC(c2ccccc2)Oc2ccccc21 (configuration not stated)	> 100 µM	
O=C1NC2=C(CCCCC/C2=N\O)C12CCCCCC2	> 100 µM	
O=C(NCc1ccccc1)c1cc2ccccc2oc1=Nc1cccc(C(F)(F)F)c1	> 100 µM	
COc1ccc2nc(NC(=O)/C(C#N)=C/c3ccccc3)sc2c1	> 100 µM	
COc1cc2oc(-c3ccc(O)cc3)cc(=O)c2c(O)c1C1OC(CO)C(O)C(O)C1O (configuration not stated)	> 100 µM	
CCOC(=O)c1csc(NC(=O)C(C)N2CCCC2)n1 (configuration not stated)	> 100 µM	
COC(=O)C1C(=O)O[C@@H](c2ccc3c(c2)OCO3)C1C(=O)OC (mixture of isomers)	> 100 µM	
CC(=O)O[C@H]1C(=O)[C@@]2(C)C([C@H](OC(=O)c3ccccc3)[C@]3(O)C[C@H](OC(=O)[C@H](O)[C@@H](NC(=O)c4ccccc4)c4ccccc4)C(C)=C1C3(C)C)[C@]1(OC(C)=O)CO[C@@H]1C[C@@H]2O (some centres not stated)	> 50 µM	21.8
COc1ccc2c(c1)c(-c1nc(-c3c[nH]c4ncccc34)cs1)cn2CCCN1CCOCC1	8.2 µM	1960
CCOC(=O)CSc1nc(N)c2c(-c3ccccc3)c3c(nc2n1)CCCC3	> 100 µM	
O=[N+]([O-])c1ccc(Cl)c2c([N+](=O)[O-])cccc12	> 10 µM	
O=c1/c(=C/c2ccccc2[N+](=O)[O-])sc2nnc(-c3cccnc3)n12	> 100 µM	
S=C(Cc1ccc2c(c1)Sc1ccccc1O2)N1CCOCC1	> 100 µM	
C[C@]12Cc3cn[nH]c3C(=O)C1CC[C@@H]1C2CC[C@@]2(C)C1CC[C@@H]2O (some centres not stated)	> 100 µM	
COc1ccc2sc3c(NCCCN)nc4ccccc4c3c(=O)c2c1	3.03 µM	1600
COc1ccc2ccc3oc(=O)c(C)cc3c2c1	> 100 µM	
O=c1ccc2ccc(S)cc2o1	> 100 µM	
O=C1NC(=N[C@@H](CO)c2ccccc2)S/C1=C\c1ccc2ncccc2c1	> 23.6 µM	4530
CN(C)C(=O)C(F)(F)C(c1ccc(F)cc1)C1C(=O)N(C)C(=O)N(C)C1=O (configuration not stated)	> 100 µM	
CCOC(=O)C1C(c2ccc(Cl)cc2Cl)NC(c2ccc(C)cc2)C(C(=O)OC)S1(=O)=O (configuration not stated)	> 100 µM	
CN(CCN1CCCC1)C1CCc2cc(Cl)c(Cl)cc2C1 (configuration not stated)	29.7 µM	
Cc1cc([N+](=O)[O-])c(C)c2c1[nH]c1ccc(Cl)cc12	> 100 µM	
COc1nc2c(c(O)c(C)c(=O)n2OC2OCC(OC(C)=O)C(OC(C)=O)C2OC(C)=O)c(=O)n1C (configuration not stated)	> 100 µM	
CC(=O)NNc1nc(C)c(C(=O)NNC(=O)C(=O)Nc2ccc([N+](=O)[O-])cc2[N+](=O)[O-])s1	> 100 µM	
N#CC1c2ccccc2C=CN1C(=O)CCCl (configuration not stated)	35.5 µM	18300
N#Cc1c(-c2ccc([N+](=O)[O-])cc2)cc(-c2ccc(Nc3ccnc4cc(Cl)ccc34)cc2)[nH]c1=O	> 100 µM	

SMILES	TGI	GI50 [nM]
O=C1/C(=C/c2ccc(Cl)c(Cl)c2)CN(C(=O)CCN2CCC(=NO)CC2)C/C1=C\c1ccc(Cl)c(Cl)c1	3.77 µM	1660
Cc1nc(N)c(N2CCN(C#N)CC2)c(=O)[nH]1	> 100 µM	
O=C(COc1ccc(OCC(=O)N/N=C/c2ccc(-c3ccc(Cl)cc3Cl)o2)c(Cl)c1)N/N=C/c1ccc(-c2ccc(Cl)cc2Cl)o1	> 100 µM	
CNC(=O)c1ncccc1Nc1nc(Nc2cc3c(cc2OC)CCCN3C(=O)CN(C)C)nc2[nH]ccc12	6.28 µM	953
CCCCCCN(CCCCCC)C(=S)N/N=C(\C)c1ccccn1	2.57 µM	
COC(=O)[C@]1(C)CCC[C@@]2(C)C1CC[C@]13C=C(C(C)C)[C@H](CC21)CC3(Cl)C#N (some centres not stated)	> 100 µM	
O=C1C=CC2(O[C@H](c3ccccc3)[C@@H](c3ccccc3)O2)[C@H](Sc2ccccc2O)C1	14.4 µM	
CCCCI(O)OS(=O)(=O)c1ccc(C)cc1	> 100 µM	
CC1=C(C(=O)Nc2ccccc2)C(c2ccc(N(C)C)cc2)C(C(=O)Nc2ccccc2)=C(C)N1	> 100 µM	
Cc1c2ccnc(C(N)=O)c2c(C)c2c1[nH]c1ccccc12	35.8 µM and 27.1 µM	4900
OCc1ccc2c(c1)CC1(C2)Cc2cc3c(cc2C1O)CCC3 (configuration not stated)	49.8 µM	
O=c1c2ccccc2sc2c(CO)ccc(NCCN3CCCCC3)c12	13.3 µM	
NC1=CC(=O)c2c(O)ccc(O)c2C1=O	50.8 µM	
CCc1ccccc1NC(=O)c1cccc([N+](=O)[O-])c1O	85.6 µM	
Nc1ncnc2c1nnn2C1C=CC(CP(=O)(O)O)C1 (configuration not stated)	> 100 µM	
CSCC[C@@H](NC(=O)[C@H](CC(C)C)NC(=O)C(Cc1cnc[nH]1)NC(=O)CNC(=O)[C@@H](NC(=O)[C@H](C)NC(=O)[C@H](Cc1c[nH]c2ccccc12)NC(=O)[C@H](CCC(N)=O)NC(=O)[C@@H](N)CC(N)=O)C(C)C)C(N)=O (some centres not stated)	> 100 µM	
N#CNC(N)=NCc1ccccc1	> 100 µM	
Cc1c(C)n(-c2ccccc2)c2nc(S(C)=O)nc(S(C)=O)c12 (configuration not stated)	31 µM	
Cc1ccc2c(c1)CN1c3ccc(C)cc3CN2C1c1ccccc1O	> 100 µM	
CCN=c1sc2c(n1NC(=O)c1cc3ccc1CCc1ccc(cc1)CC3)C(=O)c1ccccc1C2=O	7.25 µM	2620
CC1(C)OC[C@@H]([C@@]2(CO[Si](c3ccccc3)(c3ccccc3)C(C)(C)C)CC=CC(=O)O2)O1	35.1 µM	15500
Nc1ncnc2c1N=C(c1ccc3c(c1)OCO3)CC(c1ccc(Cl)cc1)N2 (configuration not stated)	> 100 µM	16900
O=[N+]([O-])c1ccccc1C1SCc2nc3ccccc3n21 (configuration not stated)	> 100 µM	
CN(O)C(=O)/C=C/c1ccc(OCc2cccc(Cl)c2)cc1	66.6 µM	
COc1ccc2c(c1)c1c(n2CCN2CCCCC2)-c2cccc(OC)c2CC1	55 µM	
